According to the supplement of paper PMC10126150:
Sequences with one replicate were seen in a single cluster, so their values are uncertain.

These sequences were tested on ATP (assay: switch fluorescence ratio, 500 uM ATP over buffer (Cy3 cluster intensity, sum of 5 cycles each) (fold (ratio)); higher = stronger signal-on switching upon ATP binding; sequences stand for … in TCGTCGGCAGCGTCAGATGTGTATAAGAGACAGTTTTTTTTTTTTTTTTTTTTTTTTT…TC). Conditions: aptamer strand: ATP DNA aptamer (quencher-CACCTGGGGGAGTATTGCGGAGGAAGG + anchor), 100 nM annealed; ATP concentration: 500 uM; one replicate.
How it was run: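 Cy3-labelled switching-strand clusters on a modified Illumina MiSeq flow-cell were annealed to 100 nM quencher-labelled ATP aptamer and imaged first in selection buffer, then after 15 min with 500 uM ATP at 22 °C. NaOH stripping and re-annealing separated each of five buffer/ATP cycles, and clusters outside 100-1000 RFU were excluded. The fluorescence ratio sums target-cycle Cy3 intensity over buffer-cycle Cy3 intensity per cluster and averages it per switch-domain sequence.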
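Also: ATP exposure 15 min at 22 °C before imaging.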

Which switch fluorescence ratio does the source give for GGGGCCCAGC here?
Its switch fluorescence ratio is 0.961.

GGGGCCGCGT was tested. Which switch fluorescence ratio did it give?
Its switch fluorescence ratio is 1.04.

GGGGCCTACG was tested. Which switch fluorescence ratio did it give?
Its switch fluorescence ratio is 1.12.

How did the switch fluorescence ratio turn out when GGGGCCTTCT was run?
Its switch fluorescence ratio is 0.954.

How did the switch fluorescence ratio turn out when GGGGCGATGG was run?
Its switch fluorescence ratio is 0.997.

GGGGCGCAGT was tested. Which switch fluorescence ratio did it give?
The switch fluorescence ratio was 0.93.

Which switch fluorescence ratio does the source give for GGGGCGCCGT here?
Its switch fluorescence ratio is 1.08.

Which switch fluorescence ratio does the source give for GGGGCGCGAG here?
Its switch fluorescence ratio is 0.996.

How did the switch fluorescence ratio turn out when GGGGCTTAAC was run?
The switch fluorescence ratio was 1.01.

For GGGGGCAGC, which switch fluorescence ratio is on record?
The switch fluorescence ratio was 0.999.

With GGGGGCTTC as the sequence, how does the switch fluorescence ratio read?
The switch fluorescence ratio was 1.01.

GGGGTCACAT was tested. Which switch fluorescence ratio did it give?
The switch fluorescence ratio was 1.01.

For GGGGTCGT, which switch fluorescence ratio is on record?
The switch fluorescence ratio was 1.01.

Which switch fluorescence ratio does the source give for GGGGTCTCCT here?
Its switch fluorescence ratio is 0.984.

With GGGGTCTGTG as the sequence, how does the switch fluorescence ratio read?
The switch fluorescence ratio was 0.945.

With GGGGTCTTAA as the sequence, how does the switch fluorescence ratio read?
Its switch fluorescence ratio is 0.981.

Which switch fluorescence ratio does the source give for GGGGTGACGA here?
The switch fluorescence ratio was 1.

For GGGGTGGAAC, which switch fluorescence ratio is on record?
The switch fluorescence ratio was 1.07.

With GGGGTTACC as the sequence, how does the switch fluorescence ratio read?
The switch fluorescence ratio was 0.998.

With GGGGTTCTGT as the sequence, how does the switch fluorescence ratio read?
Its switch fluorescence ratio is 0.944.

How did the switch fluorescence ratio turn out when GGGGTTCTTC was run?
Its switch fluorescence ratio is 1.05.

With GGGTAAAGCC as the sequence, how does the switch fluorescence ratio read?
Its switch fluorescence ratio is 0.976.

With GGGTAAAGGT as the sequence, how does the switch fluorescence ratio read?
Its switch fluorescence ratio is 0.984.

How did the switch fluorescence ratio turn out when GGGTACGGTC was run?
The switch fluorescence ratio was 0.979.

How did the switch fluorescence ratio turn out when GGGTACTCAT was run?
The switch fluorescence ratio was 1.02.

GGGTAGCGAT was tested. Which switch fluorescence ratio did it give?
The switch fluorescence ratio was 1.16.

GGGTAGCGGT was tested. Which switch fluorescence ratio did it give?
The switch fluorescence ratio was 1.01.

With GGGTAGTTGA as the sequence, how does the switch fluorescence ratio read?
Its switch fluorescence ratio is 1.02.

For GGGTATATCG, which switch fluorescence ratio is on record?
Its switch fluorescence ratio is 0.996.

How did the switch fluorescence ratio turn out when GGGTATGCTC was run?
Its switch fluorescence ratio is 0.975.

With GGGTCATGCA as the sequence, how does the switch fluorescence ratio read?
The switch fluorescence ratio was 1.02.

With GGGTCCATAT as the sequence, how does the switch fluorescence ratio read?
Its switch fluorescence ratio is 1.04.

How did the switch fluorescence ratio turn out when GGGTCCCGCT was run?
Its switch fluorescence ratio is 0.966.

Which switch fluorescence ratio does the source give for GGGTCCGGCA here?
Its switch fluorescence ratio is 0.985.

With GGGTCCGTTG as the sequence, how does the switch fluorescence ratio read?
Its switch fluorescence ratio is 1.01.

Which switch fluorescence ratio does the source give for GGGTCCTTAT here?
The switch fluorescence ratio was 0.968.

GGGTCGAGAC was tested. Which switch fluorescence ratio did it give?
The switch fluorescence ratio was 1.1.

Which switch fluorescence ratio does the source give for GGGTCGTGGT here?
Its switch fluorescence ratio is 1.

How did the switch fluorescence ratio turn out when GGGTCTCGCA was run?
The switch fluorescence ratio was 0.992.

For GGGTCTCGGG, which switch fluorescence ratio is on record?
Its switch fluorescence ratio is 0.995.

Which switch fluorescence ratio does the source give for GGGTGACAAA here?
Its switch fluorescence ratio is 1.02.

How did the switch fluorescence ratio turn out when GGGTGATATA was run?
The switch fluorescence ratio was 1.04.

How did the switch fluorescence ratio turn out when GGGTGCAGAA was run?
The switch fluorescence ratio was 1.07.

With GGGTGCCA as the sequence, how does the switch fluorescence ratio read?
The switch fluorescence ratio was 1.01.

With GGGTGCCTGC as the sequence, how does the switch fluorescence ratio read?
The switch fluorescence ratio was 1.

Which switch fluorescence ratio does the source give for GGGTGGATCA here?
The switch fluorescence ratio was 1.03.

Which switch fluorescence ratio does the source give for GGGTGGGTAA here?
The switch fluorescence ratio was 1.

GGGTGGTCTT was tested. Which switch fluorescence ratio did it give?
Its switch fluorescence ratio is 1.

With GGGTGGTGAT as the sequence, how does the switch fluorescence ratio read?
The switch fluorescence ratio was 1.01.

With GGGTGGTGTC as the sequence, how does the switch fluorescence ratio read?
Its switch fluorescence ratio is 1.08.

Which switch fluorescence ratio does the source give for GGGTGTCATA here?
Its switch fluorescence ratio is 0.999.

Which switch fluorescence ratio does the source give for GGGTTACAAT here?
Its switch fluorescence ratio is 1.

GGGTTATTGC was tested. Which switch fluorescence ratio did it give?
Its switch fluorescence ratio is 0.977.

Which switch fluorescence ratio does the source give for GGGTTCATGA here?
Its switch fluorescence ratio is 0.987.

How did the switch fluorescence ratio turn out when GGGTTCTAGA was run?
The switch fluorescence ratio was 1.02.

GGGTTGC was tested. Which switch fluorescence ratio did it give?
The switch fluorescence ratio was 1.03.

GGGTTGCAAA was tested. Which switch fluorescence ratio did it give?
Its switch fluorescence ratio is 0.983.

For GGGTTGGAGC, which switch fluorescence ratio is on record?
Its switch fluorescence ratio is 1.02.

With GGGTTGGTAC as the sequence, how does the switch fluorescence ratio read?
The switch fluorescence ratio was 1.03.

Which switch fluorescence ratio does the source give for GGGTTTTGAC here?
The switch fluorescence ratio was 0.962.

With GGTAAACACG as the sequence, how does the switch fluorescence ratio read?
The switch fluorescence ratio was 1.07.

For GGTAAACCAT, which switch fluorescence ratio is on record?
The switch fluorescence ratio was 1.02.

With GGTAAATTAC as the sequence, how does the switch fluorescence ratio read?
Its switch fluorescence ratio is 0.999.

For GGTAACGGA, which switch fluorescence ratio is on record?
Its switch fluorescence ratio is 1.07.

For GGTAAGTACG, which switch fluorescence ratio is on record?
Its switch fluorescence ratio is 1.2.

With GGTAATAACA as the sequence, how does the switch fluorescence ratio read?
Its switch fluorescence ratio is 0.978.

For GGTAATAGTT, which switch fluorescence ratio is on record?
Its switch fluorescence ratio is 0.998.

For GGTAATCTTG, which switch fluorescence ratio is on record?
The switch fluorescence ratio was 1.02.

GGTAATTGTA was tested. Which switch fluorescence ratio did it give?
Its switch fluorescence ratio is 0.957.

How did the switch fluorescence ratio turn out when GGTACCCCCG was run?
Its switch fluorescence ratio is 1.78.

GGTACGAATT was tested. Which switch fluorescence ratio did it give?
The switch fluorescence ratio was 1.03.

How did the switch fluorescence ratio turn out when GGTACGATGA was run?
Its switch fluorescence ratio is 0.997.

GGTACTAGCA was tested. Which switch fluorescence ratio did it give?
Its switch fluorescence ratio is 1.01.

For GGTACTGCC, which switch fluorescence ratio is on record?
The switch fluorescence ratio was 1.09.

Which switch fluorescence ratio does the source give for GGTACTGCTA here?
Its switch fluorescence ratio is 1.13.

For GGTAGAGAGG, which switch fluorescence ratio is on record?
Its switch fluorescence ratio is 0.999.

Which switch fluorescence ratio does the source give for GGTAGATAAA here?
Its switch fluorescence ratio is 1.02.

Which switch fluorescence ratio does the source give for GGTAGCCACC here?
Its switch fluorescence ratio is 1.05.

GGTAGCTACG was tested. Which switch fluorescence ratio did it give?
The switch fluorescence ratio was 0.971.

How did the switch fluorescence ratio turn out when GGTAGCTTTG was run?
The switch fluorescence ratio was 0.989.

With GGTAGGAAAT as the sequence, how does the switch fluorescence ratio read?
The switch fluorescence ratio was 0.989.

How did the switch fluorescence ratio turn out when GGTAGGCGTT was run?
The switch fluorescence ratio was 1.06.

With GGTAGGGGAT as the sequence, how does the switch fluorescence ratio read?
The switch fluorescence ratio was 1.06.

Which switch fluorescence ratio does the source give for GGTAGGGGCC here?
Its switch fluorescence ratio is 0.942.

How did the switch fluorescence ratio turn out when GGTAGGTACG was run?
Its switch fluorescence ratio is 0.966.

Which switch fluorescence ratio does the source give for GGTAGTAGTT here?
Its switch fluorescence ratio is 0.989.

GGTAGTTGTA was tested. Which switch fluorescence ratio did it give?
The switch fluorescence ratio was 0.983.

How did the switch fluorescence ratio turn out when GGTAGTTTCG was run?
The switch fluorescence ratio was 0.999.

GGTATAAAT was tested. Which switch fluorescence ratio did it give?
Its switch fluorescence ratio is 1.01.

For GGTATAACCG, which switch fluorescence ratio is on record?
The switch fluorescence ratio was 1.02.

For GGTATAAGCG, which switch fluorescence ratio is on record?
Its switch fluorescence ratio is 1.02.

GGTATAGGCG was tested. Which switch fluorescence ratio did it give?
Its switch fluorescence ratio is 0.849.

Which switch fluorescence ratio does the source give for GGTATATAGA here?
Its switch fluorescence ratio is 0.977.

GGTATCATGA was tested. Which switch fluorescence ratio did it give?
The switch fluorescence ratio was 0.962.

GGTATCATGT was tested. Which switch fluorescence ratio did it give?
The switch fluorescence ratio was 0.998.

Which switch fluorescence ratio does the source give for GGTATCGAAT here?
Its switch fluorescence ratio is 0.958.

How did the switch fluorescence ratio turn out when GGTATCGACG was run?
Its switch fluorescence ratio is 0.991.

For GGTATGAATG, which switch fluorescence ratio is on record?
Its switch fluorescence ratio is 0.997.

With GGTATGGTTG as the sequence, how does the switch fluorescence ratio read?
The switch fluorescence ratio was 0.988.

GGTATTGTTA was tested. Which switch fluorescence ratio did it give?
Its switch fluorescence ratio is 1.

How did the switch fluorescence ratio turn out when GGTCAATTGG was run?
The switch fluorescence ratio was 0.99.
